The text below walks through data of the supplement of paper PMC12217912.

Some of the results follow. The full chains were built here from the parent and the listed change. Values near 0.05 are background.

The labels stand for the following.
B1: TEV protease; numbered along this chain (parent)
chain: MGESLFKGPRDYNPISSSICHLTNESDGHTTSLYGIGFGPFIITNKHLFRRNNGTLVVQSLHGVFKVKDTTTLQQHLVDGRDMIIIRMPKDFPPFPQKLKFREPQREERICLVTTNFQTKSMSSMVSDTSCTFPSGDGIFWKHWIQTKDGQCGSPLVSTRDGFIVGIHSASNFTNTNNYFTSVPKNFMELLTNQEAQQWVSGWRLNADSVLWGGHKVFMVKPEEPFQPVKEATQL

The variants in this test derive from B1. Briefly: raw area under fraction-flipped curve 0-4 h after induction (AUC4h, not background-subtracted), DNA-recorder readout of cleavage of the substrate (dimensionless); higher = more cleavage of the substrate by the protease variant. As to conditions: temperature: 34 °C; time window: 0-4 h after rhamnose induction. On the procedure: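 In vivo DNA recorder in E. coli TOP10(DE3) ΔrhaA at 34 °C. Each TEVp single-site mutant (parent TEVp 0) is paired with a single-site variant of the 7-mer TEVs (canonical ENLYFQ|S). The substrate sits between flexible linkers in a Bxb1-sfGFP-TEVs-SsrA fusion, so cleavage stabilises Bxb1 and speeds flipping of a recombination array, read by NGS. The value is the raw area under the fraction-flipped curve over 0-4 h after rhamnose induction (AUC4h), with ≥20 reads per time point. It is not background-subtracted; inactive controls average about 0.047.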
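Note: Bxb1 expression induced with 0.2% (w/v) L-rhamnose at OD600 near 0.5, cultures sampled hourly, flipped fraction per protease–substrate barcode pair counted by paired-end Illumina sequencing.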

For the variant MGESLFKGHRDYNPISSSICHLTNESDGHTTSLYGIGFGPFIITNKHLFRRNNGTLVVQSLHGVFKVKDTTTLQQHLVDGRDMIIIRMPKDFPPFPQKLKFREPQREERICLVTTNFQTKSMSSMVSDTSCTFPSGDGIFWKHWIQTKDGQCGSPLVSTRDGFIVGIHSASNFTNTNNYFTSVPKNFMELLTNQEAQQWVSGWRLNADSVLWGGHKVFMVKPEEPFQPVKEATQL [P9H], the “area with substrate ENLYFCS” value came to 0.0588, the “area with substrate ENLYFES” value was 0.066, the “area with substrate ENLYFFS” value came out at 0.0589 and the “area with substrate ENLYFHS” value came out at 0.0554. Moreover, the “area with substrate ENLYFKS” value stood at 0.0505, the “area with substrate ENLYFMS” value amounted to 0.0866, the “area with substrate ENLYFNS” value is 0.0749 and the “area with substrate ENLYFPS” value was 0.0662. Besides, the “area with substrate ENLYFRS” value was determined as 0.0647 and the “area with substrate ENLYFYS” value amounted to 0.0625.
Turning to MGESLFKGPRDYNPISSSICHLTNESDGHTTSLYGIGFGPFIITNKHLFRRNNGTLVVQSLHGVFKVKDTTTLQQHLVDGRDMIIIRMPKDFPPFPQKLKFREPQREERICLVTTNFQPKSMSSMVSDTSCTFPSGDGIFWKHWIQTKDGQCGSPLVSTRDGFIVGIHSASNFTNTNNYFTSVPKNFMELLTNQEAQQWVSGWRLNADSVLWGGHKVFMVKPEEPFQPVKEATQL [T119P], the “area with substrate ENLYFCS” value was 0.0613, the “area with substrate ENLYFFS” value is 0.0746, the “area with substrate ENLYFHS” value was 0.0506 and the “area with substrate ENLYFIS” value was determined as 0.0588. Besides, the “area with substrate ENLYFLS” value was found to be 0.0409, the “area with substrate ENLYFMS” value is 0.0703, the “area with substrate ENLYFNS” value was 0.0611 and the “area with substrate ENLYFVS” value worked out at 0.0638.
Turning to MGESLFKGPRDYNPISSSICHLTNESDGHTTSLYGIGFGPFIITNKHLFRRNNGTLVVQSLHGVFKVKDTTTLQQHLVDGRDMIIIRMPKDFPPFPQKLKFREPQREEFICLVTTNFQTKSMSSMVSDTSCTFPSGDGIFWKHWIQTKDGQCGSPLVSTRDGFIVGIHSASNFTNTNNYFTSVPKNFMELLTNQEAQQWVSGWRLNADSVLWGGHKVFMVKPEEPFQPVKEATQL [R109F], the “area with substrate ENLYFCS” value was found to be 0.0317, the “area with substrate ENLYFGS” value was 0.0471, the “area with substrate ENLYFIS” value is 0.049 and the “area with substrate ENLYFKS” value amounted to 0.0603. Also, the “area with substrate ENLYFMS” value is 0.0555, the “area with substrate ENLYFPS” value came out at 0.0493, the “area with substrate ENLYFSS” value was found to be 0.0648 and the “area with substrate ENLYFVS” value was found to be 0.0595.
In the case of MGESLFKGPRDYNPISSSICHLTNESDGHTTSLYGIGFGPFIITNKHLFRRNNGTLVVQSLHGVFKVKDTTTLQQHLVDGRDMIIIRMPKDFPPFPQKLKFREPQREERICLVTTNFQTKSMSSMVSDTSCTFPSGDGIFWKHWIQTKDGQCGSPLVSTRDGFIVGIHSASNFTNTNNYFTSVPQNFMELLTNQEAQQWVSGWRLNADSVLWGGHKVFMVKPEEPFQPVKEATQL [K185Q], the “area with substrate ENLYFCS” value was determined as 0.0599, the “area with substrate ENLYFES” value was found to be 0.0703, the “area with substrate ENLYFFS” value came out at 0.0659 and the “area with substrate ENLYFHS” value was found to be 0.0521. Moreover, the “area with substrate ENLYFIS” value was found to be 0.0591, the “area with substrate ENLYFKS” value was 0.0653, the “area with substrate ENLYFLS” value was determined as 0.0518 and the “area with substrate ENLYFMS” value was found to be 0.0653. The “area with substrate ENLYFNS” value is 0.0568, the “area with substrate ENLYFPS” value is 0.0523, the “area with substrate ENLYFRS” value came out at 0.0539 and the “area with substrate ENLYFSS” value came to 0.0631. Besides, the “area with substrate ENLYFTS” value turned out to be 0.0583 and the “area with substrate ENLYFYS” value amounted to 0.0669.
For the variant MGESLFKGPRDYNPISSSICHLTNESDGHTTSLYGIGFGPCIITNKHLFRRNNGTLVVQSLHGVFKVKDTTTLQQHLVDGRDMIIIRMPKDFPPFPQKLKFREPQREERICLVTTNFQTKSMSSMVSDTSCTFPSGDGIFWKHWIQTKDGQCGSPLVSTRDGFIVGIHSASNFTNTNNYFTSVPKNFMELLTNQEAQQWVSGWRLNADSVLWGGHKVFMVKPEEPFQPVKEATQL [F41C], the “area with substrate ENLYFCS” value came out at 0.0673, the “area with substrate ENLYFDS” value came to 0.0562, the “area with substrate ENLYFES” value was determined as 0.0899 and the “area with substrate ENLYFFS” value is 0.0643. Moreover, the “area with substrate ENLYFHS” value was found to be 0.0684, the “area with substrate ENLYFIS” value is 0.0577, the “area with substrate ENLYFKS” value was 0.0616 and the “area with substrate ENLYFMS” value is 0.0553. Besides, the “area with substrate ENLYFPS” value was determined as 0.0557, the “area with substrate ENLYFRS” value was 0.0774, the “area with substrate ENLYFSS” value is 0.0415 and the “area with substrate ENLYFTS” value is 0.0585. The “area with substrate ENLYFWS” value came to 0.0573 and the “area with substrate ENLYFYS” value came to 0.052.
Consider MGESLFKGPRDYNPISSSICHLTNESDGHTLSLYGIGFGPFIITNKHLFRRNNGTLVVQSLHGVFKVKDTTTLQQHLVDGRDMIIIRMPKDFPPFPQKLKFREPQREERICLVTTNFQTKSMSSMVSDTSCTFPSGDGIFWKHWIQTKDGQCGSPLVSTRDGFIVGIHSASNFTNTNNYFTSVPKNFMELLTNQEAQQWVSGWRLNADSVLWGGHKVFMVKPEEPFQPVKEATQL [T31L], for which the “area with substrate ENLYFCS” value amounted to 0.0541, the “area with substrate ENLYFDS” value amounted to 0.0663, the “area with substrate ENLYFFS” value was 0.0677 and the “area with substrate ENLYFHS” value turned out to be 0.0565. Besides, the “area with substrate ENLYFIS” value is 0.0668, the “area with substrate ENLYFKS” value came out at 0.0654, the “area with substrate ENLYFMS” value came to 0.0531 and the “area with substrate ENLYFPS” value was 0.0467. Moreover, the “area with substrate ENLYFSS” value stood at 0.0565, the “area with substrate ENLYFWS” value came out at 0.0592 and the “area with substrate ENLYFYS” value is 0.058.
On to MGESLFKGPRDYNPISSSICHLTNESDGHTTSLYGIGFGPFIITNKHLFRRNNGTLVVQSLHGVFKVKDTTTLQQHLVDGRDMIIIRMPKDFPPFPQKLKFREPQREERICLVTTNFQTKSMSSMVSDTSCTFPSGDGIFWKHWIQTKDGQCESPLVSTRDGFIVGIHSASNFTNTNNYFTSVPKNFMELLTNQEAQQWVSGWRLNADSVLWGGHKVFMVKPEEPFQPVKEATQL [G153E], for which the “area with substrate ENLYFCS” value amounted to 0.0651, the “area with substrate ENLYFDS” value is 0.0519, the “area with substrate ENLYFES” value stood at 0.0409 and the “area with substrate ENLYFIS” value turned out to be 0.0366. In addition, the “area with substrate ENLYFMS” value was 0.0559, the “area with substrate ENLYFNS” value came out at 0.0528 and the “area with substrate ENLYFTS” value stood at 0.0683.
As to MGESLFKGPRDYNPISSSICHLTNESDGHTTSLYGIGFGPFIITNKHLFRRNNGTLVVQSLHGVFKVKDTTTLQQHLVDGRDMIIIGMPKDFPPFPQKLKFREPQREERICLVTTNFQTKSMSSMVSDTSCTFPSGDGIFWKHWIQTKDGQCGSPLVSTRDGFIVGIHSASNFTNTNNYFTSVPKNFMELLTNQEAQQWVSGWRLNADSVLWGGHKVFMVKPEEPFQPVKEATQL [R87G], the “area with substrate ENLYFCS” value came to 0.0662, the “area with substrate ENLYFIS” value was found to be 0.083, the “area with substrate ENLYFKS” value is 0.0598 and the “area with substrate ENLYFRS” value turned out to be 0.0689. Besides, the “area with substrate ENLYFYS” value is 0.0248.
On to MGESLFKGPRDYNPISSSICHLTNESDGHTTSLYGIGFGPFIITNKHLFRRNNGTLVVQSLHGVFKVKDTTTLQQHLVDGRDMIIIRMPKDFPPFPQKLKFREPQREERICLVTTNFQTKSMSSMVSDTSCTFPSGDGIFWKHWIQTKDGQCGSPLVSTRDGTIVGIHSASNFTNTNNYFTSVPKNFMELLTNQEAQQWVSGWRLNADSVLWGGHKVFMVKPEEPFQPVKEATQL [F163T], for which the “area with substrate ENLYFCS” value is 0.0639, the “area with substrate ENLYFDS” value was found to be 0.059, the “area with substrate ENLYFES” value is 0.0618 and the “area with substrate ENLYFFS” value was 0.0624. The “area with substrate ENLYFIS” value came out at 0.0643, the “area with substrate ENLYFKS” value was 0.0723, the “area with substrate ENLYFLS” value was determined as 0.0594 and the “area with substrate ENLYFNS” value stood at 0.0854. For the same variant, the “area with substrate ENLYFPS” value was 0.0553, the “area with substrate ENLYFRS” value stood at 0.0557 and the “area with substrate ENLYFYS” value stood at 0.0648.
For the variant MGESLFKGPRDYNPISSSICHLTNESDGHTTSLYGIGFPPFIITNKHLFRRNNGTLVVQSLHGVFKVKDTTTLQQHLVDGRDMIIIRMPKDFPPFPQKLKFREPQREERICLVTTNFQTKSMSSMVSDTSCTFPSGDGIFWKHWIQTKDGQCGSPLVSTRDGFIVGIHSASNFTNTNNYFTSVPKNFMELLTNQEAQQWVSGWRLNADSVLWGGHKVFMVKPEEPFQPVKEATQL [G39P], the “area with substrate ENLYFCS” value worked out at 0.0342, the “area with substrate ENLYFDS” value stood at 0.0328, the “area with substrate ENLYFES” value came out at 0.0354 and the “area with substrate ENLYFFS” value was determined as 0.0422. Moreover, the “area with substrate ENLYFHS” value amounted to 0.0374, the “area with substrate ENLYFIS” value worked out at 0.0339, the “area with substrate ENLYFLS” value was determined as 0.0477 and the “area with substrate ENLYFMS” value was 0.0405. The “area with substrate ENLYFNS” value amounted to 0.0443, the “area with substrate ENLYFPS” value turned out to be 0.0385, the “area with substrate ENLYFSS” value amounted to 0.015 and the “area with substrate ENLYFTS” value was found to be 0.0183. Moreover, the “area with substrate ENLYFVS” value was 0.0467 and the “area with substrate ENLYFWS” value was 0.0364.
